{"source": "the RNAGym collection of RNA variant scans (doi:10.7554/elife.90254)", "parents": {"B1": {"name": "LINE1-mini (parent)", "chain": "GGCAGAGCUCAACACAGCGUGGCAAAGUGGCUGUGGCUAGACUGCC"}}, "note": "The source gives no read counts; variants with many changes may rest on few reads.", "data": [{"variants_of": "B1", "test": "self-cleavage, relative activity (ratio to wild type); higher = more cleavage; in vitro, sequencing; the parent is a self-cleaving ribozyme", "values": [{"variant": "A14C A16G G30U", "self-cleavage": 0.04}, {"variant": "A14G G33C U43A", "self-cleavage": 0.03}, {"variant": "A14C G21C A25C U38A G40U C45U", "self-cleavage": 0.02}, {"variant": "A14G C15U A25G C46U", "self-cleavage": 0.06}, {"variant": "A14G G35A G36C", "self-cleavage": 0.01}, {"variant": "A14G C15U C23G U43C", "self-cleavage": 0.01}, {"variant": "A14G C23G A41U", "self-cleavage": 0.13}, {"variant": "A14G U20A G21U G27A U34A C42G", "self-cleavage": 0.06}, {"variant": "A14U A16U C18G G22A G30C G36C C45U", "self-cleavage": 0}, {"variant": "A14G G19U G40U C46A", "self-cleavage": 0.04}, {"variant": "C13U U28G U32G", "self-cleavage": 0.01}, {"variant": "A14G G30A A41U", "self-cleavage": 0.3}, {"variant": "A14G C18U U34G", "self-cleavage": 0.25}, {"variant": "A14C U34G G44C", "self-cleavage": 0.14}, {"variant": "A14G G17U G19C U20A G22C G40U", "self-cleavage": 0.1}, {"variant": "A14C G22C G36U U43A", "self-cleavage": 0.02}, {"variant": "A14C A25U C37G", "self-cleavage": 0.26}, {"variant": "A14C C18G U28C G33A", "self-cleavage": 0.01}, {"variant": "A14C A24G C45G", "self-cleavage": 0.14}, {"variant": "A14C C15U C31U G44U", "self-cleavage": 0.03}, {"variant": "A14C U20C C37G C45G", "self-cleavage": 0.02}, {"variant": "A14C G17U G21U G27C A39G", "self-cleavage": 0.09}, {"variant": "A14G C15A A24C C42G U43A", "self-cleavage": 0.01}, {"variant": "A14C A16G C18G G21U A39C", "self-cleavage": 0.03}, {"variant": "A14C G21U C23G G27A G35U G40A", "self-cleavage": 0.04}, {"variant": "A14G C15G C42A", "self-cleavage": 0.05}, {"variant": "A14C C23U U43C", "self-cleavage": 0.1}, {"variant": "A14G G29U C37U A39U", "self-cleavage": 0.03}, {"variant": "A14G G21U A26G U43G", "self-cleavage": 0}, {"variant": "A14G C37G C42G", "self-cleavage": 0.01}, {"variant": "A14G U20C C23A G30A C37U", "self-cleavage": 0.01}, {"variant": "C13U U32G C37A", "self-cleavage": 0}, {"variant": "A14G A25C G33C", "self-cleavage": 0.05}, {"variant": "A14C A26U G44A", "self-cleavage": 0.17}, {"variant": "A14C G22A U38G", "self-cleavage": 0.01}, {"variant": "A14C C15A A26G U38A", "self-cleavage": 0.07}, {"variant": "A14C A26C G30C", "self-cleavage": 0.18}, {"variant": "A14U A16C G27C G35U C46G", "self-cleavage": 0.07}, {"variant": "A14G C18U U28G", "self-cleavage": 0.04}, {"variant": "A14U A16C G17U", "self-cleavage": 0.07}, {"variant": "A14C C15U C23G A26U G40A", "self-cleavage": 0.03}, {"variant": "A14C G17A G22C G33U U34G", "self-cleavage": 0.01}, {"variant": "A14C U28C G44A", "self-cleavage": 0.13}, {"variant": "A14C C23U G33C", "self-cleavage": 0.05}, {"variant": "A14C G17A A26U", "self-cleavage": 0.04}, {"variant": "A14G C18G A24U", "self-cleavage": 0.1}, {"variant": "A14C G29A C42G C46U", "self-cleavage": 0.02}, {"variant": "A14G G21C G27C", "self-cleavage": 0.67}, {"variant": "A14C G27A G40U", "self-cleavage": 0.02}, {"variant": "A14G C18A G40A", "self-cleavage": 0.03}, {"variant": "A14C A16G G19U A41G C45A", "self-cleavage": 0}, {"variant": "A14G G27U U28G", "self-cleavage": 0.35}, {"variant": "A14G G22C C46U", "self-cleavage": 0.04}, {"variant": "A14C A24U C31G G36A A39U C46G", "self-cleavage": 0.02}, {"variant": "A14C C18G A24U G44U", "self-cleavage": 0.06}, {"variant": "A14C G40C C46U", "self-cleavage": 0}, {"variant": "A14G C23A G33C U34G", "self-cleavage": 0}, {"variant": "A14G G17A U28C G35A", "self-cleavage": 0.08}, {"variant": "A14C C18U G27U A41C", "self-cleavage": 0}, {"variant": "A14C C31U G33C C45G", "self-cleavage": 0.02}, {"variant": "A14C G29A G30U C42U", "self-cleavage": 0.13}, {"variant": "A14C A26G G33U", "self-cleavage": 0.04}, {"variant": "A14C G27U U38G", "self-cleavage": 0.02}, {"variant": "A14G G21U C23U", "self-cleavage": 0.69}, {"variant": "A14G U32G C45A", "self-cleavage": 0.02}, {"variant": "A14C G17A U20G G21C", "self-cleavage": 0.03}, {"variant": "A14G G27A C37G G44C", "self-cleavage": 0.05}, {"variant": "A14G A26G G40U", "self-cleavage": 0.07}, {"variant": "A14G A25C G30U G40U", "self-cleavage": 0.15}, {"variant": "A14U A16C G19U", "self-cleavage": 0.03}, {"variant": "A14C C18A C23G G27A G35U C46A", "self-cleavage": 0.04}, {"variant": "A14C U32C G35C", "self-cleavage": 0}, {"variant": "A14C U32G C42G", "self-cleavage": 0.01}, {"variant": "A14C G33C C42G", "self-cleavage": 0.04}, {"variant": "A14C G30U U38G", "self-cleavage": 0.03}, {"variant": "A14G G19U G35U U38C", "self-cleavage": 0.23}, {"variant": "A14C C31U U32A C37A", "self-cleavage": 0.17}, {"variant": "A14C G33A G36C", "self-cleavage": 0.01}, {"variant": "A14G C23U A25C", "self-cleavage": 0.59}, {"variant": "A14C G36U C37U", "self-cleavage": 0}, {"variant": "A14G G19A U38A", "self-cleavage": 0.24}, {"variant": "A14G G33U G35U", "self-cleavage": 0.1}, {"variant": "A14G C15G C31G", "self-cleavage": 0.01}]}]}
